# The antibiotic and cytotoxicity screens of Wong et al. (2023)
# The list shows a part of the results.
# Tested on: HSkMC (human skeletal muscle cells)
# Test: cytotoxicity call (relative viability < 0.9)
# Conditions: 10 µM
row,Compound,cytotoxicity call
1,Cl.NCCS,inactive
2,C[C@@H]1CCCCO[C@H](CN(C)S(=O)(=O)c2ccc(Cl)cc2)[C@@H](C)CN([C@@H](C)CO)C(=O)c2cc(NC(=O)Nc3cccc4ccccc34)ccc2O1,inactive
3,C[C@@H]1CN([C@@H](C)CO)C(=O)c2cc(NC(=O)CCCN(C)C)ccc2O[C@@H]1CN(C)Cc1ccncc1,inactive
4,CN(C)CCCNC(=O)C[C@H]1C=C[C@@H](NS(=O)(=O)c2ccccc2)[C@H](CO)O1,inactive
5,C[C@@H]1CN([C@H](C)CO)C(=O)c2cc(NC(=O)Nc3ccc(F)cc3)ccc2O[C@@H](C)CCCCO[C@H]1CN(C)C(=O)NC1CCCCC1,inactive
6,CN1C(=O)c2cc(NC(=O)c3cscn3)ccc2OC[C@H]2O[C@@H](CC(=O)N3CCOCC3)CC[C@H]21,inactive
7,COc1ccc(C[C@H]2c3cc(OC)c(OC)cc3CC[N@+]2(C)CCC(=O)OCCCCCOC(=O)CC[N@+]2(C)CCc3cc(OC)c(OC)cc3[C@@H]2Cc2ccc(OC)c(OC)c2)cc1OC,inactive
8,C[C@@H]1CN([C@@H](C)CO)C(=O)Cc2cc(NS(=O)(=O)c3ccc(Cl)cc3)ccc2O[C@H]1CN(C)Cc1ccc(Oc2ccccc2)cc1,active
9,COc1cc(OC)nc(N)n1,inactive
10,CC(C)CC#Cc1ccc2c(c1)O[C@@H](CN(C)CC1CCOCC1)[C@H](C)CN([C@@H](C)CO)S2(=O)=O,inactive
